# According to publication PMC4336329 (PLoS ONE, 2015):
# About 14,000 (4.5%) of roughly 310,000 compounds showed an effect of 50% or more. Effects have a minus sign here. The list shows a part of the results.
# Target: human ether-à-go-go-related gene (hERG) potassium channel (human, UniProt Q12809)
# Experiment: primary screen, population patch clamp on CHO cells stably expressing hERG
# 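Note: peak tail current of the secondary pulse compared with the same well before compound.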
# human ether-à-go-go-related gene (hERG) potassium channel, sequence (Q12809 whole entry, looked up): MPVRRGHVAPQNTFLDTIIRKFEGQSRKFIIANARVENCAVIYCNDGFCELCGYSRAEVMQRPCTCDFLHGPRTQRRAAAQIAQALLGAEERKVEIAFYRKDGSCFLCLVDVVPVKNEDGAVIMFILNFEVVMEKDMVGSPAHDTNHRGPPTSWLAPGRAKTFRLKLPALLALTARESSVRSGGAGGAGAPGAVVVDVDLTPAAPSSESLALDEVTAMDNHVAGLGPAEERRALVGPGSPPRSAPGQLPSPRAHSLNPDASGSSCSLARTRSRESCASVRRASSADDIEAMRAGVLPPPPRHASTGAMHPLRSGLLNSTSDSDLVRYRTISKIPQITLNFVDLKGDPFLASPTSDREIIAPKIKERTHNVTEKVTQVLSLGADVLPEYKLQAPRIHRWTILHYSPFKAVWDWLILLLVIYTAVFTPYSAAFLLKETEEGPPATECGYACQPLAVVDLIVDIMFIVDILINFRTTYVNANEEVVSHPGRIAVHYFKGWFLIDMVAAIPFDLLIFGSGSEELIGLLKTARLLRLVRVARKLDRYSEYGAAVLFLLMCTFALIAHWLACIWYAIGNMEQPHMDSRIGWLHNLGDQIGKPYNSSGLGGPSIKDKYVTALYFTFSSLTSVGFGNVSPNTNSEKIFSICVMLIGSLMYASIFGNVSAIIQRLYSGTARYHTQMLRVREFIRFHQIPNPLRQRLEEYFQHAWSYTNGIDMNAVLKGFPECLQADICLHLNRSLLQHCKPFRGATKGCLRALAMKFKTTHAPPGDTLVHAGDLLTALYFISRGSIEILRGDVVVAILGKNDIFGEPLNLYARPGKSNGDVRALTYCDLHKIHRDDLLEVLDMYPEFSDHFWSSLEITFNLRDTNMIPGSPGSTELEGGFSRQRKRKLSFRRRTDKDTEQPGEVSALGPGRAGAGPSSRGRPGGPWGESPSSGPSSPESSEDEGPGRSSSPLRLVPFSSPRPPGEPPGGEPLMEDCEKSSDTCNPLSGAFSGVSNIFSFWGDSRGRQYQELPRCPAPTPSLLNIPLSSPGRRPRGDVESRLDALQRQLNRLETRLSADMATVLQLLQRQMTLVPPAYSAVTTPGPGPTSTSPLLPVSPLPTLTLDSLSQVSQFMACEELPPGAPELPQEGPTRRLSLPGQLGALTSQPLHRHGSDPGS
row,Structure (SMILES),"hERG current change (%, negative = inhibition) at 10uM"
1,CCCC(=O)c1ccc(-c2ccccc2)cc1,-4.95%
2,Cc1cc(CN(C)C(=O)c2ccc(OC3CCN(CCc4ccccc4)CC3)cc2)on1,-74.1%
3,O=C(O)C1CCCNC1 (centres unmarked),-1.74%
4,O=C(Oc1c(-c2ccccc2Cl)oc2ccccc2c1=O)c1ccc(Cl)cc1,2.37%
5,C[N+]1(C)CCC(OC(=O)C(O)(c2ccccc2)C2CCCC2)C1.[Br-] (centres unmarked),18.2%
6,CC(NC(=O)Cc1c(F)cccc1Cl)C1CCCO1 (centres unmarked),-8.47%
7,O=C1CSC(c2ccccc2[N+](=O)[O-])N1c1ccccc1 (centres unmarked),17.2%
8,CCc1cccc(C)c1NC(=S)NCC1CCN(c2ccc(OC)cc2)C1 (centres unmarked),-5.21%
9,O=S(=O)(c1ccc(Br)c2ccccc12)N1CCOCC1,-11.8%
10,CCc1ccccc1NC(=O)CSc1nnc(CNC(=O)c2ccco2)n1C,16.9%
11,CCOC(OCC)P(=O)(c1ccccc1)c1ccccc1,-10.3%
12,CCCCCC(C)NC(=O)CN1C(=O)NC(C)(c2ccc3ccccc3c2)C1=O (centres unmarked),-14.1%
13,C/C(=N\NC(=S)NC1CCCCC1)c1ccc(C)o1,-17.3%
14,CC1CCCCC1NC(=O)CSCC(=O)O (centres unmarked),10.7%
15,COc1ccc(Cc2c(O)nc(SCC(=O)NC34CC5CC(CC(C5)C3)C4)[nH]c2=O)cc1,4.4%
16,COc1ccc(N(CC(=O)N2CCCCCC2)S(=O)(=O)c2ccc(OC)c(OC)c2)cc1,-24.4%
17,CC(=O)NCCNc1ccc([N+](=O)[O-])cn1,-6.44%
18,CCOC(=O)N1CCN(C(=O)C2CC(=O)N(c3ccc(C)cc3)C2)CC1 (centres unmarked),-47.9%
19,CN(CCc1nc2ccccc2[nH]1)Cc1nc(CC2CC2)no1,-13.7%

row,Structure (SMILES),"hERG current change (%, negative = inhibition) at 10uM"
1,O=C(CC1COc2ccccc2O1)NCc1ccccc1 (centres unmarked),-16.6%
2,CS(=O)(=O)c1ccc2nc(NC(NC(=O)c3ccco3)(C(F)(F)F)C(F)(F)F)sc2c1,-12.1%
3,Cc1nn(Cc2ccccc2Cl)c(Cl)c1/C=C/C(=O)OCC(=O)NC1CCS(=O)(=O)C1 (centres unmarked),7.43%
4,O=C(Cn1cc(SCc2ccccc2Cl)c2ccccc21)N1CCOCC1,-29.8%
5,CCOc1ccc(-c2nc(C#N)c(N3CCN(C)CC3)o2)cc1,-32.5%
6,Cc1csc(NC(=O)c2cc(-c3ccccc3)nc3ccccc23)n1,-14.1%
7,Cn1cc([N+](=O)[O-])c(C(=O)NCc2ccccc2)n1,7.55%
8,CCOC(=O)Cn1nnnc1C(CC)N(Cc1cccs1)Cc1cc2ccc(OC)cc2[nH]c1=O (centres unmarked),-10.4%
9,Cc1onc(-c2ccccc2)c1C(=O)N(Cc1ccccn1)Cc1ccccn1,-9.65%
10,CC(C)N1C(=O)N(c2ccc(Cl)cc2)C(C)(O)CC1(C)C (centres unmarked),9.09%
11,Cc1cc(N2CCOCC2)n2cc(-c3ccc(F)cc3)nc2n1,-69%
12,CC(=O)Nc1ccc(S(=O)(=O)N2CCN=C2SCc2ccc([N+](=O)[O-])cc2)cc1,-29.2%
13,C/C(CC(=O)Nc1ccc(OCc2ccccc2)cc1)=N\NC(=O)C(=O)Nc1ccccc1C,4.04%
14,Cc1ccc(Nc2ccc3nonc3c2[N+](=O)[O-])cc1,2.88%
15,COc1ccc(-n2nc(C(=O)NCC(=O)N3CCN(Cc4ccccc4)CC3)c3ccccc3c2=O)c(OC)c1,-28.6%
16,Cc1ccc(NCc2n[nH]c(=S)n2-c2ccccc2)cc1Cl,6.08%
17,Cc1ccccc1-c1nnc(SCC(=O)NC2CCCCC2)o1,-10.5%
18,CCOC(=O)c1ccc(Nc2cc(C)nc3nc(C)nn23)cc1,-53%
19,CCOc1ccc(Br)cc1S(=O)(=O)Nc1ccc(NC(=O)c2ccccc2F)cc1,8.7%

row,Structure (SMILES),"hERG current change (%, negative = inhibition) at 10uM"
1,COC(=O)/C=C1\S/C(=N/NC(=O)c2ccc(OC)cc2)NC1=O,8.98%
2,COc1ccc(CNC(=O)COc2ccc(Br)c(C)c2)cc1,9.09%
3,Cn1c(=O)c2c(nc(N/N=C/c3ccc(OC(=O)c4ccco4)cc3)n2Cc2ccccc2)n(C)c1=O,-4.61%
4,Cc1ccc(NS(=O)(=O)c2ccc(C(=O)N3CCOCC3)cc2)cc1,10.7%
5,CC(C)N1CCC(N2CCN(C/C=C/c3ccccc3)CC2CCO)CC1 (centres unmarked),-7.17%
6,Cc1sc(-c2ccncc2)nc1OC(=O)c1cc(Cl)cc(Cl)c1,10.2%
7,Cc1ccc(NC(=O)Cn2c(=O)cnc3ccccc32)cc1S(=O)(=O)N(C)C,-24.6%
8,COc1ccc([C@H]2CC(=O)C=C(c3ccccc3OC)C2)cc1OC,-10.8%
9,COc1ccccc1CNC(=O)OCc1nccnc1C(=O)Nc1ccc(Br)cn1,13.8%
10,Cc1cc(C)n(CCCC(=O)O)n1,35.2%
11,OCC1OC(n2nc3ccccc3n2)C(O)C(O)C1O (centres unmarked),5.81%
12,Cc1ccc(C)c(NC(=O)CN(C)C(=O)c2ccc(S(=O)(=O)N3CCCCCC3)cc2)c1,-13.7%
13,Cc1oc2ccc(OCc3ccc(Cl)cc3)cc2c1C(=O)O,33.7%
14,COc1cc2c(cc1OC)C(C)N(S(=O)(=O)c1cn(C)c(C)n1)CC2 (centres unmarked),10.5%
15,COc1ccc(OC)c(NC(=O)CSc2nc(=O)n(Cc3ccccn3)c3c2CCC3)c1,-30.2%
16,O=C(CSc1nnc(-c2ccccc2NC(=O)c2ccccc2)o1)OC1CCCCC1,-17.2%
17,Cc1cccc(C)c1NC(=O)CN(C)C(=O)/C=C/c1cccs1,12.6%
18,CCCCCOC(=O)C1=C(C)NC(=O)NC1c1ccccc1OCC (centres unmarked),-16%
